Reference: the supplement of paper PMC3334620
The full ranking holds about 33,000 sequences; the median of “E-score (-0.5 to 0.5)” is about -0.016, and the highest 2% start at about 0.31. The list shows a part of the results.

Each sequence was assayed against Cst6 (UniProt P40535) (assay: PBM E-score (8-mer binding enrichment) (E-score (-0.5 to 0.5)); higher = stronger / more preferred TF binding; most listed sequences are background and not binding sites). Details: protein concentration: 200 nM; construct: GST-DNA-binding domain.
In short: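 For each ungapped eight-base word taken together with its reverse complement, the Universal PBM Analysis Suite assigned an E-score. Binding data came from GST-tagged yeast transcription factors, applied at about 100-200 nM, on universal all-10-mer Agilent arrays made double-stranded by primer extension. Fluorescent anti-GST marked bound protein, and scans were normalised with masliner.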

Sequence | PBM E-score
CAATGATA | 0.268
ATTCTTCG | 0.156
GAGGCCAC | -0.164
CGTGATAA | 0.154
AGTTCACC | 0.0267
GTTTGGTA | 0.213
CCTCACAG | -0.0712
AAAGCCTT | -0.0208
CTGCATAA | 0.0964
AGGTAATA | 0.273
GTGGCCCA | -0.236
ATCCCTCG | -0.263
AGGCCACA | -0.183
CCGCCCCG | 0.0604
ATAAAATA | 0.286
AAACGTCC | -0.0706
GTGTTCGA | 0.00046
CGTTTTCA | 0.225
AATCTCAG | -0.111
GCTTCACA | -0.177
ACTTCTTG | 0.0136
ATTATGAA | 0.292
AGTCGCAT | -0.106
GCTCAAAC | 0.0496
GCGAGCAC | -0.268

Sequence | PBM E-score
GATGTCGC | -0.0961
GATTGGGA | -0.139
CTCATACC | 0.118
CGCTAGTA | -0.0677
CTGGTGGC | -0.0998
CCAGTACA | -0.058
AATTGGCA | 0.0554
AGGGGTTC | -0.327
ATCTTGAC | 0.0907
GGTCCAGA | -0.111
CGTGAATC | -0.01
AGGTGGAC | -0.235
GTTCCGCA | -0.0152
GAACGGTA | -0.00045
AACGTACG | 0.00342
ACTGCCTG | -0.00529
ACGTGAAT | 0.124
CGTCTACC | -0.0234
GCGGCTAC | 0.0691
AAGTAGAT | 0.0462
ACGATGCG | 0.118
CGCTCACG | 0.0482
ATTTTGCA | 0.11
GACCGGCC | -0.202
AGCCGTAT | 0.169

Sequence | PBM E-score
CCAGTGCC | -0.0416
ACGCAGCC | -0.0579
AAATTAGT | 0.29
AAAAGCCG | 0.0736
CCGCGCAC | -0.0524
AATCAAAA | 0.125
CCCGCCGG | -0.269
CAATTAAC | 0.166
ACGTAGTC | 0.075
GAGGCAGA | -0.122
AACATTTA | 0.155
AGCCATGA | 0.0578
GGGAGCCC | -0.386
CTGTTGTA | 0.0968
AAAGAACA | 0.171
TAACTTCA | 0.162
CAGATTAG | -0.133
GACAACAA | 0.204
AGAGATAT | -0.00058
GAGTGCAC | -0.13
AATTTTCC | 0.104
AGTGAAGA | -0.173
AGCGGAAG | -0.0688
CGGGAAAA | -0.0839
CCTATAAA | -0.00874

Sequence | PBM E-score
GCCGGCGA | -0.299
AAGAGTGG | -0.279
GATCCCCC | -0.411
GGAACCAA | -0.125
GGATACTA | 0.0713
ACACAGGC | 0.0379
GAACGTTA | -0.124
TAACGCAA | 0.255
CCGCGTAG | 0.0312
GCTAAGCC | -0.174
GTGCCATA | 0.00902
GATGATGC | 0.328
CCGTCCAG | -0.0988
CGCAACAC | 0.0161
GCGCAACC | -0.233
CTCCCCAA | -0.139
AATTATTA | 0.321
CTCCTCAA | -0.28
CGCTAGCC | -0.271
GTTCCCAA | -0.206
CCGATATA | -0.0171
ACGTCTAA | 0.0702
CCTTTTCG | 0.021
ATCTAAAG | -0.00075
CCGTTCAG | -0.073

Sequence | PBM E-score
AGTTGCCG | 0.0837
CTTAGGCC | -0.185
CACGGTAA | 0.0352
GGTCTAGA | -0.167
CATTACGG | 0.168
GCGCATAC | -0.0378
TATTAGCA | 0.0328
CCGTAGGC | -0.116
GACAGCCC | -0.272
ACATGCAC | 0.0295
GGATAGTA | 0.0601
CTGATTAC | 0.239
GTCACCGA | 0.426
CTCGACAC | 0.0158
CTAGGGAA | -0.11
CTATTGGA | 0.0987
CACATGTA | 0.00769
CCCAGTTA | -0.28
ACCGCCCG | -0.3
CTGTATTA | 0.106
AGTCTCAT | -0.217
CGTTGGTA | 0.0178
GACTTTGA | 0.0418
CCCAGTGA | -0.133
ATAATATC | 0.219

Sequence | PBM E-score
AAGTCGGG | -0.208
AAACGCAA | 0.254
GTGCTCGA | -0.121
GTGTGGTA | 0.0556
CGCAATAC | 0.165
GAGCATCC | -0.272
AGTGCAAC | -0.209
GCCAAATA | 0.0707
GTGGTGCA | -0.132
GCCGATCC | -0.132
CCATCTGC | -0.0385
AACCAGAC | -0.0583
GGTCGATA | -0.0752
CGACTCCA | -0.279
GAGATGAC | 0.239
CCCCATCG | -0.139
CGGACATA | 0.0467
ATACGGCC | 0.138
TAGAAAAA | 0.0827
AACTATGA | 0.221
GAACGTCC | 0.0008
CCATCGAC | -0.185
ATGGTAAC | 0.153
AGGATAAC | -0.0728
ATCGATAC | 0.171

Sequence | PBM E-score
AGGCCATA | -0.286
ACTTAGTG | -0.0595
AGTGATGG | 0.0422
CACCTGGG | -0.147
AGCCACGA | -0.0963
GTTGGTTA | 0.00579
AGTCTTAT | -0.00794
AGTTTACG | 0.199
CTACGCAA | 0.119
CCTAGCAG | -0.268
GACAGATA | 0.111
GTCATTAA | 0.394
CAGCTACG | -0.0432
CATGCTTC | 0.121
CGCGGTCC | -0.188
AAATGAAC | 0.104
CAACGGCA | 0.094
GGCAGTTA | -0.00143
GATCGCAA | 0.184
GCCACGTA | 0.196
GGGAAATA | -0.0876
CTATCTGC | -0.241
